Test results reported in patent US20250270339A1 (Alector, published 2025).

T1: Cyno TfR ECD Avi-His (cynomolgus macaque, UniProt Q5RDH6 89-760 (Pongo abelii entry), biotin on the Avi tag (BirA) where captured on streptavidin)
T1 construct: also called Cyno TfR Avi-His; cyno TfR Avi-His
T1 chain: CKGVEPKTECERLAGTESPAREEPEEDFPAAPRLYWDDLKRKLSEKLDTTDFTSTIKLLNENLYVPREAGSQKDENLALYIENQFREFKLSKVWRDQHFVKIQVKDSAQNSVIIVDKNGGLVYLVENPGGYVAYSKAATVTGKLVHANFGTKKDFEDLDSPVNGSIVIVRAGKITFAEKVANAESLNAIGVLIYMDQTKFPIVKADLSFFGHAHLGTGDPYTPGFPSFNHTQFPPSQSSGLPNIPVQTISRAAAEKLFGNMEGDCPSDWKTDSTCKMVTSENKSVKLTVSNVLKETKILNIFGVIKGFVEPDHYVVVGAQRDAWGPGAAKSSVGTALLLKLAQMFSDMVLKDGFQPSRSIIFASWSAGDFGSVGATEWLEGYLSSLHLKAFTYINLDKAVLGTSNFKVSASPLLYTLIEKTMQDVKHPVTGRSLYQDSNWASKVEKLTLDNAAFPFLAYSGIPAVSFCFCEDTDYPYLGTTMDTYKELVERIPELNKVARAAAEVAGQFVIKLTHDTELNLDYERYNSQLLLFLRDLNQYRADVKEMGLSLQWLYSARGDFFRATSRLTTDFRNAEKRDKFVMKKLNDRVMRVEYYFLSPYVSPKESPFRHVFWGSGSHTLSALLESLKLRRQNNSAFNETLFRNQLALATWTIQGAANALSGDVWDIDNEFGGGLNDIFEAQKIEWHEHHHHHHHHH

B1: TfR9.1B.39 2+1 anti-TfR bispecific antibody (bispecific antibody, human IgG1, kappa)
heavy 1: EVRLLESGGGLVQPGGSLRLSCAASGFTFSNYAMGWVRQAPGKGLEWVSAISGSGGSTYYADSVKGRFTTSRDDSKNALYLQMNSLRAEDTAVYYCARGGPGWYAADVWGQGTTVTVSSASTKGPSVFPLAPSSKSTSGGTAALGCLVKDYFPEPVTVSWNSGALTSGVHTFPAVLQSSGLYSLSSVVTVPSSSLGTQTYICNVNHKPSNTKVDKKV[here human IgG1 Fc with changes without letters]GGGGSGGGGSGGGGSQVQLVQSGAEVKKPGASVKVSCKASGYTFTEYAMHWVRQAPGQGLEWMGGINPNDGGTSYNQKFKGRVTMTVDTSTSTAYMELSSLRSEDTAVYYCASQGWLLRGGDYWGQGTLVTVSSGGSEGKSSGSGSESKSTGGSDVVMTQSPLSLPVTLGQPASISCKASQSLLDEDGKTYLNWLQQRPGQSPRRLIYLVSKLDSGVPDRFSGSGSGTDFTLKISRVEAEDVGVYYCWQGTHFPQTFGGGTKVEIK
heavy 2: EVRLLESGGGLVQPGGSLRLSCAASGFTFSNYAMGWVRQAPGKGLEWVSAISGSGGSTYYADSVKGRFTTSRDDSKNALYLQMNSLRAEDTAVYYCARGGPGWYAADVWGQGTTVTVSS[here human IgG1 constant region with changes without letters]
light: DIQMTQSPSSLSASVGDRVTITCRASQSISSYLNWYQQKPGKAPKLLIYAASSLQSGVPSRFSGSGSGTDFTLTISSLQPEDFATYYCQQADLPAFAFGGGTKVEIKRTVAAPSVFIFPPSDEQLKSGTASVVCLLNNFYPREAKVQWKVDNALQSGNSQESVTEQDSKDSTYSLSSTLTLSKADYEKHKVYACEVTHQGLSSPVTKSFNRGEC
notes: 2+1
B2: TfR9.1B.39.05 2+1 anti-TfR bispecific antibody (bispecific antibody, human IgG1, kappa)
heavy 1: EVRLLESGGGLVQPGGSLRLSCAASGFTFSNYAMGWVRQAPGKGLEWVSAISGSGGSTYYADSVKGRFTTSRDDSKNALYLQMNSLRAEDTAVYYCARGGPGWYAADVWGQGTTVTVSSASTKGPSVFPLAPSSKSTSGGTAALGCLVKDYFPEPVTVSWNSGALTSGVHTFPAVLQSSGLYSLSSVVTVPSSSLGTQTYICNVNHKPSNTKVDKKV[here human IgG1 Fc with changes without letters]GGGGSGGGGSGGGGSQVQLVQSGAEVKKPGASVKVSCKASGYTFTEYAMHWVRQAPGQGLEWMGGIDPRSGGTSYNQKFKGRVTMTVDTSTSTAYMELSSLRSEDTAVYYCASQGWLKRGGDYWGQGTLVTVSSGGSEGRSSGSGSESKSTGGSDVVMTQSPLSLPVTLGQPASISCKASQSLLDEEGKTYLNWLQQRPGQSPRRLIYLVSKLDSGVPDRFSGSGSGTDFTLKISRVEAEDVGVYYCWQGTHFPQTFGGGTKVEIK
heavy 2: EVRLLESGGGLVQPGGSLRLSCAASGFTFSNYAMGWVRQAPGKGLEWVSAISGSGGSTYYADSVKGRFTTSRDDSKNALYLQMNSLRAEDTAVYYCARGGPGWYAADVWGQGTTVTVSS[here human IgG1 constant region with changes without letters]
light: B1 light
notes: 2+1; also called TfR9.1B.39.5
B3: TfR9.1B.39.36 2+1 anti-TfR bispecific antibody (bispecific antibody, human IgG1, kappa)
heavy 1: EVRLLESGGGLVQPGGSLRLSCAASGFTFSNYAMGWVRQAPGKGLEWVSAISGSGGSTYYADSVKGRFTTSRDDSKNALYLQMNSLRAEDTAVYYCARGGPGWYAADVWGQGTTVTVSSASTKGPSVFPLAPSSKSTSGGTAALGCLVKDYFPEPVTVSWNSGALTSGVHTFPAVLQSSGLYSLSSVVTVPSSSLGTQTYICNVNHKPSNTKVDKKV[here human IgG1 Fc with changes without letters]GGGGSGGGGSGGGGSQVQLVQSGAEVKKPGASVKVSCKASGYTFTEYAMHWVRQAPGQGLEWMGGIDPNTGGTSYNQKFKGRVTMTVDTSTSTAYMELSSLRSEDTAVYYCASQGWLLRGGDYWGQGTLVTVSSGGSEGKSSGSGSESKSTGGSDVVMTQSPLSLPVTLGQPASISCKASQSLLDEEGKTYLNWLQQRPGQSPRRLIYLVSKLDSGVPDRFSGSGSGTDFTLKISRVEAEDVGVYYCWQGTHFPQTFGGGTKVEIK
heavy 2: EVRLLESGGGLVQPGGSLRLSCAASGFTFSNYAMGWVRQAPGKGLEWVSAISGSGGSTYYADSVKGRFTTSRDDSKNALYLQMNSLRAEDTAVYYCARGGPGWYAADVWGQGTTVTVSS[here human IgG1 constant region with changes without letters]
light: B1 light
notes: 2+1; also called Tf9.1B.39.36
B4: TfR9.1B.39.37 2+1 anti-TfR bispecific antibody (bispecific antibody, human IgG1, kappa)
heavy 1: EVRLLESGGGLVQPGGSLRLSCAASGFTFSNYAMGWVRQAPGKGLEWVSAISGSGGSTYYADSVKGRFTTSRDDSKNALYLQMNSLRAEDTAVYYCARGGPGWYAADVWGQGTTVTVSSASTKGPSVFPLAPSSKSTSGGTAALGCLVKDYFPEPVTVSWNSGALTSGVHTFPAVLQSSGLYSLSSVVTVPSSSLGTQTYICNVNHKPSNTKVDKKV[here human IgG1 Fc with changes without letters]GGGGSGGGGSGGGGSQVQLVQSGAEVKKPGASVKVSCKASGYTFTEYAMHWVRQAPGQGLEWMGGIAPGTGGTSYNQKFKGRVTMTVDTSTSTAYMELSSLRSEDTAVYYCASQGWLLRGGDYWGQGTLVTVSSGGSEGKSSGSGSESKSTGGSDVVMTQSPLSLPVTLGQPASISCKASQSLLDEEGKTYLNWLQQRPGQSPRRLIYLVSKLDSGVPDRFSGSGSGTDFTLKISRVEAEDVGVYYCWQGTHFPQTFGGGTKVEIK
heavy 2: EVRLLESGGGLVQPGGSLRLSCAASGFTFSNYAMGWVRQAPGKGLEWVSAISGSGGSTYYADSVKGRFTTSRDDSKNALYLQMNSLRAEDTAVYYCARGGPGWYAADVWGQGTTVTVSS[here human IgG1 constant region with changes without letters]
light: B1 light
notes: 2+1
B5: TfR9.1B.39.38 2+1 anti-TfR bispecific antibody (bispecific antibody, human IgG1, kappa)
heavy 1: EVRLLESGGGLVQPGGSLRLSCAASGFTFSNYAMGWVRQAPGKGLEWVSAISGSGGSTYYADSVKGRFTTSRDDSKNALYLQMNSLRAEDTAVYYCARGGPGWYAADVWGQGTTVTVSSASTKGPSVFPLAPSSKSTSGGTAALGCLVKDYFPEPVTVSWNSGALTSGVHTFPAVLQSSGLYSLSSVVTVPSSSLGTQTYICNVNHKPSNTKVDKKV[here human IgG1 Fc with changes without letters]GGGGSGGGGSGGGGSQVQLVQSGAEVKKPGASVKVSCKASGYTFTEYAMHWVRQAPGQGLEWMGGIAPNTGGTSYNQKFKGRVTMTVDTSTSTAYMELSSLRSEDTAVYYCASQGWLLRGGDYWGQGTLVTVSSGGSEGKSSGSGSESKSTGGSDVVMTQSPLSLPVTLGQPASISCKASQSLLDEGGKTYLNWLQQRPGQSPRRLIYLVSKLDSGVPDRFSGSGSGTDFTLKISRVEAEDVGVYYCWQGTHFPQTFGGGTKVEIK
heavy 2: EVRLLESGGGLVQPGGSLRLSCAASGFTFSNYAMGWVRQAPGKGLEWVSAISGSGGSTYYADSVKGRFTTSRDDSKNALYLQMNSLRAEDTAVYYCARGGPGWYAADVWGQGTTVTVSS[here human IgG1 constant region with changes without letters]
light: B1 light
notes: 2+1

Molecular target: T1, Cyno TfR ECD Avi-His
Experiment: BLI (GatorBio), biotinylated TfR on probe

Binder	Kd [µM]	binding result
B1	1.3	–
B2	–	binds
B3	2.3	–
B4	1.3	–
B5	1.5	–
